Results are given in words; binding and its absence hold for the method and conditions named. For some of these results: In cells and extracts the contact can be indirect. Some binding calls cover weakened binding; strength is not graded here. Sequences can lack the tags named with a protein.
T1: SLC39A9-HA (UniProt Q9NUM3)
T1 sequence: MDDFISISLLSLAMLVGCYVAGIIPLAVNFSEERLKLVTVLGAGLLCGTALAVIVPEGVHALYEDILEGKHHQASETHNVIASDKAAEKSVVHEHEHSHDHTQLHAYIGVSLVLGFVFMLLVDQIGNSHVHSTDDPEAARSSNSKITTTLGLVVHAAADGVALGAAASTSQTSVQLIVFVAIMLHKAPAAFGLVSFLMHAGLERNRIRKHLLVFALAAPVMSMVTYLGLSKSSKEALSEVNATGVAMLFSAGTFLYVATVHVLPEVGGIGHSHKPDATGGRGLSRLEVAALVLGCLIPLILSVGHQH

Sequences of proteins named here, by UniProt entry; tags and fusion partners are left off. Residues count along the entry.
UniProt Q05320, residues 33-676: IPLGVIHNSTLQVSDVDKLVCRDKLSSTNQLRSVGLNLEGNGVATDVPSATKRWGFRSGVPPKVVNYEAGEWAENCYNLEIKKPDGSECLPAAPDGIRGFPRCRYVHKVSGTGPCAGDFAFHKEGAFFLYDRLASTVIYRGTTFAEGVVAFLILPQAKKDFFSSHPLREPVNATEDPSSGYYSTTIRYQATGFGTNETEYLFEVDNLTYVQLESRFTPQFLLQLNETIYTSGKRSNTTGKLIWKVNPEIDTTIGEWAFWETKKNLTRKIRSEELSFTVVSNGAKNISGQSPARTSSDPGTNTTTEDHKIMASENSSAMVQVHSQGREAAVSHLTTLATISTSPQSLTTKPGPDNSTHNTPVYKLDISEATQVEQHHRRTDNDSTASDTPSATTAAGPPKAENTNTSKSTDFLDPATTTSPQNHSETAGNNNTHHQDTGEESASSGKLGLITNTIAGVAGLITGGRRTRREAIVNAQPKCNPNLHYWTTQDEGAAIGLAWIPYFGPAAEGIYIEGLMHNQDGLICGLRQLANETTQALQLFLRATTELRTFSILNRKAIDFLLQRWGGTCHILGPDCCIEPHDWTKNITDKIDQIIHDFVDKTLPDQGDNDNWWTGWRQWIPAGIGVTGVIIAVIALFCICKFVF

T2: SLC39A9-Flag (UniProt Q9NUM3)
T2 sequence: T1 sequence

T3: NPC1-10×His-Flag (human, UniProt O15118 23-1278)
T3 construct: also called purified NPC1-Flag; full-length NPC1 protein
T3 sequence (looked up): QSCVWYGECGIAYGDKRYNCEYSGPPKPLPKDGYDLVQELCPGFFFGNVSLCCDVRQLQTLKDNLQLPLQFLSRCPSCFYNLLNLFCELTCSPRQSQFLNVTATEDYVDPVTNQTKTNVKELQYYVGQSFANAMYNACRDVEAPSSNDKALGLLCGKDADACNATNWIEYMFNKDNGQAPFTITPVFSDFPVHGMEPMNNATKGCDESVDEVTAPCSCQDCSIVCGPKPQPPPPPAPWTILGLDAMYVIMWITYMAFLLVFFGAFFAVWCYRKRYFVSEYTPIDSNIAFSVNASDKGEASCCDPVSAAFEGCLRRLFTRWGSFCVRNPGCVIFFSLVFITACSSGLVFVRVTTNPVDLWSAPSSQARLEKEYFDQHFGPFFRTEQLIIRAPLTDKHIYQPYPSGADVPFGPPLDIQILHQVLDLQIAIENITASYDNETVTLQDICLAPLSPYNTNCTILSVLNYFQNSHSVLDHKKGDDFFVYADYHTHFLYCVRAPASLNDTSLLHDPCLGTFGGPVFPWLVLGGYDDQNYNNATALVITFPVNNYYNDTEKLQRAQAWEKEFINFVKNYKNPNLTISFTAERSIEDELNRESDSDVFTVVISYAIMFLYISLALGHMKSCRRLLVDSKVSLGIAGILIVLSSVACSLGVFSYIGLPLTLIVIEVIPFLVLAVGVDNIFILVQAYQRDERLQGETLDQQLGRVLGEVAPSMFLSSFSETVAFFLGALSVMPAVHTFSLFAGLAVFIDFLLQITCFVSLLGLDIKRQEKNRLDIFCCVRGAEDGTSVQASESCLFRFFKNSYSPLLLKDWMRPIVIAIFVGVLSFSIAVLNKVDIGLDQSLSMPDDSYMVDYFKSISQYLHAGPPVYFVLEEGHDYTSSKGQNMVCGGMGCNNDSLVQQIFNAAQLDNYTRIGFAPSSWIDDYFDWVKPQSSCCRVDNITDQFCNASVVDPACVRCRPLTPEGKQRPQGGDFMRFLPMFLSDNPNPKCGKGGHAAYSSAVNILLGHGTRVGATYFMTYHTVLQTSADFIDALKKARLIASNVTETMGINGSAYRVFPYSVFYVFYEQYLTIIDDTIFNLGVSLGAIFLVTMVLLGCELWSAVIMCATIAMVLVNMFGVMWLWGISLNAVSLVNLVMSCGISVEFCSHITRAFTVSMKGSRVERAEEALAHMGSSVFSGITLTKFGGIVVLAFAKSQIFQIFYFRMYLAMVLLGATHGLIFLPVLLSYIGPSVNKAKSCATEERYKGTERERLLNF

B1: SLC39A9-HA (protein, UniProt Q9NUM3 1-307)
chain: T1 sequence
B2: SLC39A9-6×His-2×Strep (protein, UniProt Q9NUM3 1-307)
chain: T1 sequence

Columns and labels:
SLC39A9-HA = molecular target: T1, SLC39A9-HA; assay: co-IP
SLC39A9-Flag = molecular target: T2, SLC39A9-Flag; assay: co-IP
NPC1-Flag (human) = NPC1-Flag (human) (UniProt O15118); assay: co-IP
NPC1-10×His-Flag = molecular target: T3, NPC1-10×His-Flag; assay: pull-down; both purified

Molecule	binding (SLC39A9-HA)	further results
NPC1-NTD-Flag (1-350aa) (from UniProt O15118 23-350) (domain or fragment)	no binding	
NPC1-NTD-MLD-Flag (1-800aa) (from UniProt O15118 23-800) (domain or fragment)	no binding	
NPC1-CTD-Flag (800-1278aa) (from UniProt O15118 800-1278) (domain or fragment)	binds	
EBOV GP-HA (from UniProt Q05320)		binding (SLC39A9-Flag): binds
NPC1-Flag (from UniProt O15118 23-1278) (receptor)	binds	
B1		binding (NPC1-Flag (human)): binds
B2		binding (NPC1-10×His-Flag): binds
